# Experimental data from the supplement of paper PMC12632987.
# In all, about 2,300 sequences were measured (“median log2 fold change of GCK-ALFA target abundance (FLAG IP / Myc IP barcode read proportion)”: median about 0.095, lowest 2% from about -0.47 on). This is one part of the list.
# B1: LC3A_3_1756 (protein)
# chain: MEEKLEEARERLKKLGFSEEVIEKALEVIEELLKKGFEEAVETLLEELERLKDLPDEILLAMLEDILEYVTTNDINEEEVIEKIKEEARVAENESEIIEL
# B2: LC3A_28_1306 (protein)
# chain: SALRERFEAAIAEAREAAAAGEPVVVTVDISAEELREHLEEILELLERLGEVASEAPGATIIVDVDGSTPAEDLAKLGKRLEEIEKKYPNVTVIIAIRDE
# B3: LC3A_3_1546 (protein)
# chain: MEELKKETLEELKAAGASDEVIEAAKEAFDLLIEKGYEEALKVLAEETKKLIGLPDELLLDFFTEVLNTLKTEDLNEEEVIEKIKEIARTTKNEAEIEEL
# B4: LC3A_28_667 (protein)
# chain: SALEENLEKALAEAKELAAKGEPAVITIRVPGDATEEEVEKVIEAMEEIAEILKDIPGSAIIIDLEEGVEEEHRDKLIDAAEEIEKKYPNVTVIIAYPER
# B5: LC3A_127_183 (protein)
# chain: EVKELAEKLIEKLEAAIKELDKPDPDLEKIEKLLKEALELAKKLVELDPRFEPVLKDIEQAIKEFERLKKAPPEEQEALREHLQMLLDGAIIEVESLLLK
# B6: LC3A_28_878 (protein)
# chain: MSVEEALAEARAVVREAVARGEEALVEIKITEPISDEEAKELVAGMEEIVEEGASLPRLSIVIDLSNKVSQKAKDIIADGAEEIEKRYPNVTVIIALEEE
# B7: LC3A_28_678 (protein)
# chain: SPLEKELEEALKKAKEAAAKGEPTVITIKVPGDATQEEIEKFIKALKEIAEILKDVKGSAIIIDLSADLSQEGRDKIIDAAEEINKKYPNVTVIIALEEK
# B8: LC3A_free_26_2166 (protein)
# chain: DEFLDIASLDAAIDDLEKALALAEANPNVSEELIKLLKEALAHLEKGTLESFKKAIKYLEEALKLVKENKKIPEEDKEKLLELLERALAHAKENAEILES
# B9: LC3A_free_39_2214 (protein)
# chain: SEEELEELIKEVAKESGLDYEYIKKKIEEIKEIAGLSLEQMKELVKAILEAVKAGADAEEILKRILALAKELKAAGKSPEEIAEALIEEAEDFRNLIPLD
# B10: LC3A_3_1683 (protein)
# chain: MEELVKEVLEVAKENGLSEEALKALEELLDLLKKRGYLKAIERLLEKLKELKDVDSETLKAMFEDLLYKLKTEDLSEEEIVELIDEEAEVARNEKEIEEL
# B11: LC3A_28_654 (protein)
# chain: EEVEKELKEALKEAEEAKKKKEPAVITIKVSGKVNEEELKKILETLEKIAELLKDIKGSAIIIDLDKDVKEEFKNKLIDKAEELEKKYPNVTVIIALEER
# B12: LC3A_3_1769 (protein)
# chain: MEERIEEAAERLRALGADEELIEKAEEALRLLLERGLEETAERFEETLEELVKKSKELALELAEEVLELLKTSKLSPEELAEEVEELIRLALLEAEIEEL
# B13: LC3A_102_142 (protein)
# chain: DLEKKREELRKRVLEAVKKALEADKSLSEEEKKRLLELAETAVDAALENTVEEAQHGFTDIVAEDKRITALDEIEKINPEIAELLKKLLEEAEKELRAFL
# B14: LC3A_28_889 (protein)
# chain: SAALESAKAALAQVKEAVAAGDQSPLVLEVKAPSDEENTEKFIELLREIAEAASALSKVTIIIDISEEVSEENRDRIIDAADEIEEEYPNVTVIIALPES
# B15: LC3A_74_2072 (protein)
# chain: MLTNEEVEKMVDLIGELKGLLELLTEKGLLTEEEVKEAKKAIEEALKILKKEGKLTEAVEGGIDLYAELVKLRLENDPEKAKELFEKSLKELKKLIEKAK
# B16: LC3A_free_2_2172 (protein)
# chain: MKYRVIIDALGKPEGIAKLVKTLVDLGIEVEVTTEDGTKMTATKETVEEVVKYLLSKKEEIYVELEAVTDKEKADKALDELEKVAEETGISYIVSIEELE
# B17: LC3A_28_1060 (protein)
# chain: SSIDEQIEAALKEAKEAVAKGEEALVTLTLDKNATEEDLEKILETIREIAELTKSLPSVTIIVDVDNPNKEEDTKRISEVGDELEKKYPNVTVIIALSED
# B18: LC3A_132_255 (protein)
# chain: SKELLEKALKELKEILDKIVELLQAGKDPWPAVKELEEKAEEYAEKLSLEETEELVKESEKYAEELFAARLDPNNEEARRVLDHIEMLFESVLIEKELKS
# B19: LC3A_free_46_2406 (protein)
# chain: YIAEIEIDLLADSKEKAEAAKEEIKKAFEEIAKKYGAEIEIESEIEEEPDGTVFVTIKITLRAEDKETLEKAVNEIIDKAEEIAEKHGASIIISYEISEE
# B20: LC3A_17_560 (protein)
# chain: MEEIKKELEEILEELEKIAKEIEKYDPEAAKKIKKLLEEAKKLLKEGKLKEAAKKLEEAAELAADVLDELEDKDPEKMSNLSMLANGLALEAIGILLKLE
# B21: LC3A_23_611 (protein)
# chain: MYKVKVIVDIITEPEEAEKLKEEIKKAIEEFLEKNKDIIVESKVKVELEELEDGRTFLRVEIEIIIDGDKETAEKIANELTSLLDEIVPDGVISVEVEKI
# B22: LC3A_40_1918 (protein)
# chain: VDELAFVAVGISPELLEEVREKVDAYFAEHGTEEERDAAVAALDEAIEALKKGELAVVEITVSSQEQADFIIDQIEEAEERGRAEGHTNALIVNITVKPK
# B23: LC3A_3_1724 (protein)
# chain: SEEIKKETIATLKEQGKSQETIDAAKELLDELEKKGYLKAMETLLELIKESKDISSETLLAMFKDLLHIVKNEDLSEEEIIKKIKEEFEIAKNEEEIIEL
# B24: LC3A_23_631 (protein)
# chain: MYRLTIEIDLYGPKEEVEKAVERLKKHAEEAAKKYGATIKELKVEFEVEETPDGEEAFARITIVIEAETKEKIEAVRDALIDETDKLGVSAVVSYEIEKL
# B25: LC3A_3_1752 (protein)
# chain: MEEKLKEAEERLKKLGFSEEVIKAALEVIKLLLERGFEKAVETLLKELEELKDLPDEIILAMLEDIKRAVEEEDLNEEEVIKIIKEEARIARSESEIIEL
# B26: LC3A_102_136 (protein)
# chain: EKEKTLKEAAEKALKELEKAIEEDKSLSEEEKEKAKKLAKEAIEAKLESLLTYLKHGFMDLEAEAKMLDALEELEKINPELAKLAKKKIEELEKLAEELE
# B27: LC3A_45_1990 (protein)
# chain: MALATIDILVPREKLEEALAVIREKAEELKAKYGDDVEVDLERLEESAEATRDEEEVYLELNIYHPDADTALDMADEIVDRLHEVLGDSVAAIISVEELP
# B28: LC3A_3_1401 (protein)
# chain: FEELKKEAIEFLKEQGASEEVIEAAKEVLEKLEERGYLNAAKTFLEELKKLKDASDELLLDFLNDVLDYLEKNDSSEEEVVKYIKEEATVTLNESEIEEL
# B29: LC3A_141_388 (protein)
# chain: MKKEFKYTADTNTVQEIFDFFDEVEKEIKEMIEKSGGKPVKVKVKLTGTNPKTGEKKVIEEEFTVTKENVSMAVEGIAIEAVSLLDEVGGTIEIEVELEV
# Target: MAP1LC3A, Q9H492
# Assay: median log2 fold change of GCK-ALFA target abundance (FLAG IP / Myc IP barcode read proportion) (log2 ratio); each designed protein is fused to an ALFA-tag nanobody in HEK293 cells to bring the named protein to FLAG-tagged glucokinase (GCK); Myc marks an untargeted standard; higher = target protein stabilised (more abundant)
# Conditions: target protein: 3xFLAG-MCP-GCK-ALFA reporter; HEK293 landing pad (RPLP)
# Method in brief: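 The readout is target abundance, the per-binder median log2 ratio of FLAG to Myc barcode read proportions. It came from HEK293 landing-pad cells carrying a recombined ALFA-nanobody-fused binder library, induced with 2 μg mL^−1 doxycycline and transfected with a plasmid for a FLAG-tagged target and a Myc-tagged standard. After 48 h, lysates were immunoprecipitated with anti-FLAG and anti-Myc, and circular RNA barcodes were reverse transcribed, amplified and sequenced. Each barcode needed a proportion of at least 10^−7 in both replicates and each binder at least 3 barcodes per replicate, a pseudocount of 10^−6 was added, and the replicates were pooled.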
row,Binder,median log2 fold change
1,B1,0.303
2,B2,0.282
3,B3,0.259
4,B4,-0.0934
5,B5,0.181
6,B6,0.258
7,B7,0.295
8,B8,0.247
9,B9,-0.832
10,B10,0.251
11,B11,0.153
12,B12,0.0632
13,B13,-0.165
14,B14,-0.157
15,B15,-0.32
16,B16,-8.53e-05
17,B17,-0.165
18,B18,0.276
19,B19,-0.0841
20,B20,0.339
21,B21,0.168
22,B22,-0.142
23,B23,0.3
24,B24,-0.014
25,B25,0.166
26,B26,0.00055
27,B27,-0.282
28,B28,0.112
29,B29,0.41
